# “And” between values parts separate entries of the source, which are not always exact repeats. Equal entries are not always repeated. The whole screen tested about 420,000 compounds, of which about 64,000 (15%) were called active. Inconclusive results, whose numbers are uncertain, are shown with a selection of clear calls. Calls follow the shape of the dose curve; as a rule, active = well fitted inhibition curve with a large enough effect; inconclusive = small, poorly fitted or top-dose-only effect; inactive = flat fitted curve, though single readings scatter. Potencies of inconclusive entries are doubtful fits and often do not repeat.
# Experiment: qHTS for Inhibitors of human tyrosyl-DNA phosphodiesterase 1 (TDP1): qHTS in cells in absence of CPT; also: nearly all actives have a fitted effect of over 55% in size
# Conditions: DT40 Tdp1-/- hTDP1 cells, no CPT, ATP luminescence, 48 h; activity change, negative = growth inhibition: at 46.2 µM (top of the series) unless noted
# Outline: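 No-CPT arm: Tdp1-/-;hTDP1 DT40 cells (400/well) plus compounds, incubated ≥48 hr at 37 °C. Readout CellTiter-Glo luminescence.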
# % is scaled to controls: 0 for no effect and ±100 for the full control effect; potency is read from the fitted curve at half-maximal effect; tags tell the direction and shape of the fitted curve.
SMILES,"activity change, negative = growth inhibition",Potency
CCN(C(=O)c1cc2cc(OC)ccc2oc1=O)c1cccc(C)c1,inactive: -24.1%,–
COc1cc(CCN2C(=O)c3cccc4cccc(c34)C2=O)c(S(=O)(=O)N2CCC(C)CC2)cc1OC,–,active: 2.59 µM
CC(C)CCOP(=O)(c1ccc(N(C)C)cc1)C(O)c1ccccc1F (stereo unspecified),–,"inconclusive: 16.4 µM [inhibitor, single point]"
CN(C)S(=O)(=O)c1cccc(NC(=S)N/N=C/c2cccc(O)c2)c1,inactive: -23.9%,–
Cc1ccc(CSc2ccc(S(=O)(=O)N3CCCCC3)cn2)cc1,inconclusive: -32.8% [inhibitor],–
Cn1c(N)c(C(=O)COC(=O)c2ccccc2C(=O)c2ccc(Cl)c([N+](=O)[O-])c2)c(=O)n(C)c1=O,–,active: 18.4 µM
C=CCSc1nnc(Cn2c(=O)sc3ccccc32)n1C,inactive: 10.5%,–
CN(C)c1ccc(C=Cc2cnccn2)cc1,–,"inconclusive: 29.1 µM [inhibitor, single point]"
CCOc1ccc(N(Cc2cc3ccc(C)cc3[nH]c2=O)S(=O)(=O)c2ccccc2)cc1,–,"inconclusive: 29.1 µM [inhibitor, single point]"
COc1ccc(NC(=O)C2COc3ccccc3C2)cc1Cl (stereo unspecified),–,active: 16.4 µM
Cc1cc2nc(N3CCN(C(=O)c4cccs4)CC3)sc2cc1C,–,"inconclusive: 29.1 µM [inhibitor, single point]"
CNC(=O)c1c(NC(=O)c2ccc(S(=O)(=O)N3CC(C)OC(C)C3)cc2)sc2c1CCN(C(C)C)C2 (stereo unspecified),–,"inconclusive: 16.4 µM [inhibitor, partial curve]"
CN(C)c1ccc(-n2cc3c(=O)n(C)c(=O)n(C)c3c2)cc1,–,"inconclusive: 29.1 µM [inhibitor, single point]"
O=C(O)COc1ccc(OCCNC[C@@H](O)COc2ccccc2)cc1,inactive: -6.22%,–
CCCCNC(=O)C1CC(c2ccc(C(F)(F)F)cc2)=NO1 (stereo unspecified),–,active: 9.2 µM
COc1ccc2c(c1)c(=O)c(C(=O)c1ccc(C)c(C)c1)cn2CC(=O)Nc1ccc2c(c1)OCCO2,–,"inconclusive: 23.1 µM [inhibitor, single point]"
CCCSC1=C(C#N)C(c2ccccc2C)C(C(=O)OC)C(=O)N1 (stereo unspecified),inactive: -11.8%,–
Cc1ccccc1NC(=S)NCc1ccccc1,–,active: 23.1 µM
Cc1ccc(Cn2c(CN3CCC(C(=O)NCc4ccccc4C)CC3)cc3ccccc32)cc1,–,active: 16.4 µM
COC(=O)c1ccc(N2NC(=O)/C(=C/c3ccc(OC)c(OC)c3)C2=O)cc1,inactive: 8.23%,–
COc1ccc(NC(=O)c2cccc(N3CCCS3(=O)=O)c2)cc1OC,inactive: -14.8%,–
CC(C)Cc1ccc(S(=O)(=O)N2CCC(c3ccncc3)CC2)cc1,–,active: 7.31 µM
COc1cccc(OCC(=O)NCCS(=O)(=O)N2CCN(c3ccccc3)CC2)c1,–,"inconclusive: 23.1 µM [inhibitor, single point]"
Cc1nc(N2CCCC2)ncc1C(=O)NCc1cccc(Cl)c1,inactive: -4.56%,–

SMILES,"activity change, negative = growth inhibition",Potency
COC(=O)c1ccc(NC(=O)CCS(=O)(=O)c2ccc(Br)s2)cc1,–,"inconclusive: 8.2 µM [inhibitor, partial curve] and inconclusive: 16.4 µM [inhibitor, single point]"
C=CCn1nnnc1SCC(=O)Nc1cccc(OC)c1,inactive: -10.7%,–
CCCn1c(=O)c2ccccc2n2c(SCCOc3ccc(OC)cc3)nnc12,–,"inconclusive: 20.6 µM [inhibitor, partial curve, poor fit]"
CCc1ccc(NC(=O)CSc2nc3ccccc3nc2Cc2ccc(C)cc2)cc1,–,active: 16.4 µM
COc1ccc(N(CC(=O)Nc2ccc3c(c2)OCO3)S(=O)(=O)c2ccccc2)cc1OC,–,"inconclusive: 29.1 µM [inhibitor, single point]"
COc1ccc(NC(=O)C2(C)Cc3c(-c4ccccc4)ccnc3O2)cc1OC (stereo unspecified),–,"inconclusive: 29.1 µM [inhibitor, single point]"
O=C(CC1OC(=O)c2ccccc21)Nc1ccc(Cl)c(S(=O)(=O)N2CCCCC2)c1 (stereo unspecified),inconclusive: -30.1% [inhibitor],–
CC(=O)Nc1sc(C)c(C)c1C(=O)OCCOc1ccccc1,–,"inconclusive: 18.4 µM [inhibitor, single point]"
COc1ccc(C(=O)CSc2nc(C)cc(C)c2C(=O)Nc2ccccc2C)cc1,–,active: 14.6 µM
c1ccc(Cc2c(-c3ccccc3)nc3c4ccccc4ccn23)cc1,–,"inconclusive: 18.4 µM [inhibitor, partial curve]"
CCOc1ccccc1N1CCN(CC(=O)Nc2ccnn2C2CCCC2)CC1,–,"inconclusive: 16.4 µM [inhibitor, single point]"
COC(=O)c1ccc(NC(=O)CC2C(=O)N(c3cccc(OC)c3)C(=O)N2Cc2ccco2)cc1 (stereo unspecified),–,"inconclusive: 25.9 µM [inhibitor, single point]"
Cc1ccccc1NC(=O)C(C)OC(=O)CCC(=O)N(CC(C)C)c1c(N)n(CC(C)C)c(=O)[nH]c1=O (stereo unspecified),inactive: -7.3%,–
COc1cc(C2(C)SCCCS2)cc(OC)c1OC,–,"inconclusive: 25.9 µM [inhibitor, single point]"
COc1ccccc1-c1cc(=O)c2cc(O)ccc2o1,–,"inconclusive: 23.7 µM [inhibitor, partial curve, poor fit]"
COCC1CCCN(C(=O)c2ccc3nc(Cc4cccc(Cl)c4)oc3c2)C1 (stereo unspecified),–,active: 14.6 µM
CCOC(=O)Nc1ccc2c(CN3C(=O)NC(CC)(CC)C3=O)cc(=O)oc2c1,–,"inconclusive: 14.6 µM [inhibitor, single point]"
CC(=O)N1c2ccc(S(=O)(=O)N3CCC(C(=O)Nc4cc(C)cc(C)c4)CC3)cc2CC1C (stereo unspecified),–,"inconclusive: 18.4 µM [inhibitor, single point]"
CCC(C)NC(=O)CSc1nc2cc3c(cc2c(=O)n1CCCC(=O)NCCc1ccc(OC)c(OC)c1)OCO3 (stereo unspecified),inactive: 8.18%,–
O=C(O)CC(NC(=O)C12CC3CC(CC(C3)C1)C2)c1ccc(F)cc1 (stereo unspecified),inactive: 13.9%,–
COc1cccc(-c2nc(S(=O)(=O)c3ccccc3)c(N3CCCCC3)o2)c1,–,active: 16.4 µM
Cc1ccccc1CN(CC(=O)Nc1cccc([N+](=O)[O-])c1)S(=O)(=O)c1ccc(Cl)cc1,–,"inconclusive: 29.1 µM [inhibitor, single point]"
CCn1c(C(C)NC(=O)c2cccs2)n[nH]c1=S (stereo unspecified),–,"inconclusive: 29.1 µM [inhibitor, single point]"
COc1ccc(C(=O)OCC(=O)Nc2ccc3[nH]c(=O)[nH]c3c2)c(OC)c1OC,inactive: -5.45%,–

SMILES,"activity change, negative = growth inhibition",Potency
CCN1C[C@@H]2[C@@H]3C(=O)N(Cc4ccccc4)C(=O)[C@@H]3[C@](CC)(C1=O)N2C(=O)c1ccc(C(F)(F)F)cc1,inactive: -8.5%,–
CCn1c(=O)cc(OCC(=O)Nc2cccc(C)n2)c2ccccc21,inactive: -21.8%,–
CCOC(=O)c1oc2nc(C(C)C)c3c(c2c1N)CC(C)(C)OC3,–,"inconclusive: 29.1 µM [inhibitor, single point]"
O=C(NCC1(c2ccccc2)CCOCC1)c1ccc(Br)o1,–,"inconclusive: 20 µM [inhibitor, partial curve, poor fit]"
CCCCC1CCC(C(=O)OCC(=O)N(CCOC)c2c(N)n(Cc3ccccc3)c(=O)[nH]c2=O)CC1 (stereo unspecified),–,"inconclusive: 25.9 µM [inhibitor, single point]"
CC(=O)OCC1=C(C(=O)O)N2C(=O)[C@@H](NC(=O)CSc3ccncc3)[C@H]2SC1,–,inactive
O=C(N/C(=C\c1ccco1)C(=O)N1CCOCC1)c1ccc([N+](=O)[O-])cc1,inactive: -6.08%,–
Cc1oc2c(C)c3oc(=O)c(CCC(=O)NCCCN4CCCC4=O)c(C)c3cc2c1C,–,"inconclusive: 20.6 µM [inhibitor, single point]"
Cc1cccc(OCCSc2nc3ccccc3n2CC(=O)N2CCOCC2)c1,inactive: -11.6%,–
CCNc1ncc2nc(-c3ccc(F)cc3)c(=O)n(Cc3ccc(F)cc3)c2n1,inactive: 5.13%,–
Cc1cccc(C(=O)CC(=O)c2cc(Cl)ccc2O)c1,–,active: 4.11 µM
O=C(CCc1ccccc1)Nc1sc2c(c1C(=O)O)CCCC2,–,"inconclusive: 29.1 µM [inhibitor, single point]"
COc1ccccc1CNC(=O)c1ccc(CS(=O)(=O)c2c(Cl)cccc2Cl)o1,–,"inconclusive: 23.1 µM [inhibitor, single point]"
Cc1ccccc1OCCCCn1c(-c2ccc(Cl)cc2)nc2ccccc2c1=O,inactive: -5.9%,–
CCOC(=O)c1c(C)[nH]c(C)c1S(=O)(=O)N(C)CC(=O)Nc1cc(Cl)ccc1C,–,"inconclusive: 14.6 µM [inhibitor, partial curve]"
CCCn1c(=O)c2sccc2n2c(CCCC(=O)N3CCN(c4ccccc4OC)CC3)nnc12,–,"inconclusive: 23.1 µM [inhibitor, single point]"
COc1cc(OC)c(C(=O)OCC(=O)c2cc(C)n(CC3CCCO3)c2C)cc1OC (stereo unspecified),inconclusive: -34% [inhibitor],–
Cc1ccc(-n2c(SCC(=O)Nc3ncc(Cl)cc3Cl)nc3ccccc32)cc1,–,active: 13 µM
Clc1ccc(OCCN2CCCCC2)cc1Cl,–,"inconclusive: 5.8 µM [inhibitor, full curve]"
CCOC(=O)c1ccc(N2C(=O)c3[nH]nc(-c4ccc(C)cc4)c3C2c2ccc(O)c(OCC)c2)cc1 (stereo unspecified),–,active: 23.1 µM
O=C(N[C@@H]1C[C@H]2CC[C@@H]1C2)c1ccco1,inactive: -15.1%,–
CCN(CC)C(=O)CSc1nnc(-c2cc(OC)cc(OC)c2)o1,–,"inconclusive: 14.6 µM [inhibitor, partial curve]"
O=C(c1ccc(CN2CCc3ccccc3C2)cc1)N1CCCCC1,–,"inconclusive: 29.1 µM [inhibitor, single point]"

# From PubChem BioAssay AID686978 (National Center for Advancing Translational Sciences (NCATS), 2013)
